{"source": "the supplement of paper PMC11417369", "note": "± gives the standard deviation of the averaged measurements. The list shows a part of the results.", "data": [{"system": "PfAP2-EXP AP2 domain (GST-tagged)", "assay": "gcPBM binding intensity (ln(normalized median fluorescence intensity)); higher = stronger DNA binding", "how_it_was_run": "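Each value is the highest Masliner-normalised natural-log median intensity across replicate spots of either orientation of a probe. The probes were primer-extended double-stranded 36-bp intergenic genomic sequences on an Agilent 4 × 180k array, alongside negative controls, exposed for 1 h to GST-tagged P. falciparum DNA-binding domains expressed in E. coli. Bound protein was picked up with Alexa488 anti-GST antibody and scanned at 488 nm.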", "values": [{"sequence": "TTATGTAGCTAGCTATAAACTTTTTTTTATTTAAAA [CACACA_negctrl_site1297]", "gcPBM binding intensity (ln)": "8.2 ± 0.46"}, {"sequence": "TATATAGATATGATAGTGCATTTTTAGAAAACATAA [GTGCAC_site9962]", "gcPBM binding intensity (ln)": "8.56 ± 0.092"}, {"sequence": "AACAGATAAAAGGGTACACACATATATACAAGTACA [CACACA_site7959]", "gcPBM binding intensity (ln)": "8.71 ± 0.54"}, {"sequence": "ATTATTATTAAATACACACACATACCTCCATGTTAG [CACACA_site3430]", "gcPBM binding intensity (ln)": "8.48 ± 0.37"}, {"sequence": "ATATATATATATATATGTACATACTATACAATAATT [XGTACX_site3546]", "gcPBM binding intensity (ln)": "10.4 ± 0.29"}, {"sequence": "TTTTTTTTAAAACTATGTACGTAAAAATTGTAGTTT [XGTACX_site2302]", "gcPBM binding intensity (ln)": "8.71 ± 0.099"}, {"sequence": "TTTATATGTATTAATTGTACACATATAATGTGTTTT [XGTACX_site3064]", "gcPBM binding intensity (ln)": "8.52 ± 0.33"}, {"sequence": "ATATGTATGTATAATCGTACAAAATTTGGCGATCTT [XGTACX_site8698]", "gcPBM binding intensity (ln)": "8.38 ± 0.33"}, {"sequence": "AAATAAAGGAAATAAAAAGAAACCAATTTCGAATAT [CACACA_negctrl_site953]", "gcPBM binding intensity (ln)": "8.77 ± 0.51"}, {"sequence": "GATATAATTATGTGTACACAATTTTTTTTTTTTTTT [CACACA_site4501]", "gcPBM binding intensity (ln)": "8.69 ± 0.13"}, {"sequence": "ATATAGTAAATTGGTAGTACATAAAATGATTTTATG [XGTACX_site4143]", "gcPBM binding intensity (ln)": "8.59 ± 0.33"}, {"sequence": "AGAACTTTTAATGGATGTACAGTTATTTTATTATTT [XGTACX_site6226]", "gcPBM binding intensity (ln)": "8.53 ± 0.36"}, {"sequence": "AAAAAAAAAACATACACACATACATACATATATATT [CACACA_site949]", "gcPBM binding intensity (ln)": "8.37 ± 0.41"}, {"sequence": "ATGAAGAATTTATATTGTACCCATTTTTATGTAAAT [XGTACX_site2528]", "gcPBM binding intensity (ln)": "8.59 ± 0.4"}, {"sequence": "CGAAAAAGTGATATAGTGCAAAATTTTCATTTCTCT", "gcPBM binding intensity (ln)": "8.61 ± 0.33"}, {"sequence": "TTTTTTTTTCTTCTTTTCAAATTTAAGAAATTATAA [CACACA_negctrl_site18]", "gcPBM binding intensity (ln)": "8.29 ± 0.44"}, {"sequence": "TGCTGTATATTTTTCTGTACACATTTATATATTCCA [XGTACX_site6244]", "gcPBM binding intensity (ln)": "8.76 ± 0.53"}, {"sequence": "TTGTTATTATATTACGCATGCATCATTTATTTGCAC [TGCATGCA_site525]", "gcPBM binding intensity (ln)": "9.3 ± 0.12"}, {"sequence": "AAAGGGAATTATGGCTGTACGCATTTTATAAATAGC [XGTACX_site5878]", "gcPBM binding intensity (ln)": "8.62 ± 0.47"}, {"sequence": "AAGAATAAGAAGAAGGATCCCCTTCAAAAAAAAAAA [TGCATGCA_negctrl_site525]", "gcPBM binding intensity (ln)": "8.32 ± 0.61"}, {"sequence": "TGATAAGAAAAAGACTTTTCCTTCTTACTTTCTATG [CACACA_negctrl_site782]", "gcPBM binding intensity (ln)": "8.26 ± 0.28"}, {"sequence": "CAAAATAAATAATTTGGTACACATAAAAAAAAAAAA [XGTACX_site8380]", "gcPBM binding intensity (ln)": "8.58 ± 0.38"}, {"sequence": "AATAATGTTTTTATATCACACACAAATATTAAATGA [CACACA_site8074]", "gcPBM binding intensity (ln)": "8.27 ± 0.31"}, {"sequence": "AAAATTGGTGAAAATGAAAATATGATTATATGTATA [XGTACX_negctrl_site505]", "gcPBM binding intensity (ln)": "8.53 ± 0.51"}, {"sequence": "CCATAAAACTATAATACACACATATAGATTAACATA [CACACA_site7849]", "gcPBM binding intensity (ln)": "8.51 ± 0.59"}, {"sequence": "AAGTAAAAAAAAAAAAGTACATGTTTATATAAATAT [XGTACX_site4741]", "gcPBM binding intensity (ln)": "8.59 ± 0.33"}, {"sequence": "ATATATTAAAAGGATTAGGAAAAAATATGATTTATC [TGCATGCA_negctrl_site405]", "gcPBM binding intensity (ln)": "8.4 ± 0.34"}, {"sequence": "ATAGAATCTGGTAGCTGTACGAGTCGTAGAGTGTAG [XGTACX_site2016]", "gcPBM binding intensity (ln)": "9.06 ± 0.45"}, {"sequence": "ATACATATATATAATACACACATAAATGTAACATTT [CACACA_site3518]", "gcPBM binding intensity (ln)": "8.59 ± 0.36"}, {"sequence": "ATAAATTAACATTAAAGTACATTTTAATAAATATTA [XGTACX_site3647]", "gcPBM binding intensity (ln)": "8.04 ± 0.38"}, {"sequence": "ATCCCCATAAAAAATACACACAAATATTTATACATA [CACACA_site1001]", "gcPBM binding intensity (ln)": "8.85 ± 0.64"}, {"sequence": "TATTTTATAAATTAATGTACATAAATTATATCTACT [XGTACX_site3625]", "gcPBM binding intensity (ln)": "8.35 ± 0.16"}, {"sequence": "ATTACGATAGAGAAATGTACATATATATATGTAAGT [XGTACX_site1200]", "gcPBM binding intensity (ln)": "8.73 ± 0.43"}, {"sequence": "TATATATATAAGATTGTGCACATTAAAATGATAGAA [GTGCAC_site9621]", "gcPBM binding intensity (ln)": "9.265 ± 0.049"}, {"sequence": "GATCAAAATTATAGAAGTACTTTATATAAATAAAAT [XGTACX_site8161]", "gcPBM binding intensity (ln)": "8.46 ± 0.39"}, {"sequence": "TCTATAAAATATAAAAGTACGTATCAATAATTAAAA [XGTACX_site8469]", "gcPBM binding intensity (ln)": "8.55 ± 0.42"}, {"sequence": "TCATAAATACATTTTGCATGTAAAATATAGAATACA [TGCATGCA_site755]", "gcPBM binding intensity (ln)": "8.71 ± 0.45"}, {"sequence": "TGTGTATACTTGTGTATACCAAATTAAAGACGCTTT [CACACA_negctrl_site1359]", "gcPBM binding intensity (ln)": "8.54 ± 0.36"}, {"sequence": "AAAAAATAAAAAAGGTGGTCATGTCACAAATACTTT [XGTACX_site7454]", "gcPBM binding intensity (ln)": "8.64 ± 0.47"}, {"sequence": "TAAAAGTGATATGTTCGTACGTATTTATATGTAATA [XGTACX_site211]", "gcPBM binding intensity (ln)": "8.44 ± 0.43"}, {"sequence": "TCTCCATCTTATGAGACATGCACTTTTTATTTAATA [TGCATGCA_site121]", "gcPBM binding intensity (ln)": "8.79 ± 0.2"}, {"sequence": "GTATATATATATATATATATATATATATATATATAT [CACACA_negctrl_site609]", "gcPBM binding intensity (ln)": "9.98 ± 0.46"}, {"sequence": "ATGATATGCAATTTAGTGCATAACAAAATTGGTATA", "gcPBM binding intensity (ln)": "8.55 ± 0.042"}, {"sequence": "AAAAAAAAAAAAAAAACACACATACCCATATATTTT [CACACA_site6013]", "gcPBM binding intensity (ln)": "8.56 ± 0.29"}]}]}
